± gives the standard deviation of the averaged measurements. Some of the results follow.
The sequences below were run on PfAP2-I AP2 domain 3 (GST-tagged) (assay: gcPBM binding intensity (ln(normalized median fluorescence intensity)); higher = stronger DNA binding).
Method in brief: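 GST-fused DNA-binding domains of P. falciparum, expressed in E. coli, were applied at about 25 μg on average for 1 h to an Agilent 4 × 180k array of primer-extended double-stranded 36-bp intergenic genomic probes and negative controls. Binding intensity is the highest Masliner-normalised natural-log median intensity across replicate spots of either probe orientation, measured with Alexa488 anti-GST antibody and a 488 nm scan.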

Row | Sequence | gcPBM binding intensity (ln)
1 | TTTTTTAAAATATATATAATGAATTTTTTTTTTTTT [CACACA_negctrl_site1577] | 7.23 ± 0.57
2 | AAAGAAAAAAAAAAAAGTACATAAATATAAAAAGAA [XGTACX_site6753] | 7.96 ± 0.57
3 | TTTTATTATTTATATACACACTTGCTGAAATGTTAT [CACACA_site5919] | 7.87 ± 0.79
4 | TATAATAATAATGATAGTACGTATGAGTTCAAAAAA [XGTACX_site608] | 7.79 ± 0.68
5 | TATATACAAATATGCTGTACAAAAAAAAAAAAAAAA [XGTACX_site4732] | 8.05 ± 0.53
6 | CGGTATTTTTTAATTTGTACGCATATACAATAATTA [XGTACX_site8603] | 7.91 ± 0.52
7 | GATATGATTACCTTATGGTGTTTTTGATGGATAGTT [CACACA_negctrl_site1504] | 7.58 ± 0.74
8 | AATCTCAGAATATACTGTACTTTAAGAAAAAAAAAA [XGTACX_site110] | 7.75 ± 0.54
9 | AATATATATTTGTGTACACATTATATATATATATAT [CACACA_site6103] | 9.42 ± 0.55
10 | AAAATTTAAATAGGAAGTACGTTCACTAAGAAAATA [XGTACX_site6546] | 7.99 ± 0.69
11 | AAATAAAGATATATATATATATATATATATAATTTT [CACACA_negctrl_site30] | 7.97 ± 0.41
12 | AAATATTTTGCATACACATGCAAATATTTTTTACAT [TGCATGCA_site554] | 9.81 ± 0.88
13 | AATATAAAAAGGCACACACACAAAAAAAAAAAAAAA [CACACA_site896] | 8.31 ± 0.29
14 | AAAATGTGCATATTTGCACACTTCAATATATATATA [CACACA_site1791] | 10.4 ± 0.2
15 | CATAAATCAGCCATAACACACATACCTATATACATA [CACACA_site6324] | 7.75 ± 0.57
16 | TGAAAGAATGTTAATAGTACACACAATTATTATATA [XGTACX_site7936] | 7.75 ± 0.42
17 | TAAGAACTATTCAGTAGTACCTATATGGATTACTAA [XGTACX_site4278] | 7.17 ± 0.54
18 | ATTGATATTGTATAATGTACAGGAAAAAAAAAAAAA [XGTACX_site526] | 8.18 ± 0.64
19 | TGAAAGAACCTGATTACACACATAAGTTATAAATAT [CACACA_site6165] | 7.5 ± 0.61
20 | TTCTTTATTTTTTCTACACACATTATGTATTCAAAG [CACACA_site3527] | 8.28 ± 0.85
21 | TTTATATTTCTTCATCGTACACATAAAAAAAAAAAA [XGTACX_site3244] | 8.25 ± 0.3
22 | ATACTCACGAAACACACACACAATATATATATATAT [CACACA_site4136] | 9.36 ± 0.27
23 | GAAAATATTAAATGAAGTACAATATTTATGTTACTT [XGTACX_site8737] | 7.61 ± 0.3

Row | Sequence | gcPBM binding intensity (ln)
24 | TTTTATATTTTAAGAGTGCATTTTATATCTTTTTCT | 9.62 ± 0.19
25 | ATAATAACTGATAAATGTACATATAAATTTTATGAT [XGTACX_site195] | 7.79 ± 0.4
26 | AGGATATGCGGACACACACACATATATATATATATA [CACACA_site5247] | 9.31 ± 0.11
27 | ATAATTTAAAAACATTGTACATTAATATATATGTAT [XGTACX_site8970] | 7.65 ± 0.48
28 | TTTTATTTATAATACTCACACATTTATATTACATAT [CACACA_site6000] | 7.75 ± 0.68
29 | CAAAAGGATGTGGGATGTACATATGAAAAAAAAAAA [XGTACX_site8059] | 8.09 ± 0.8
30 | TAAATTTAAAAATCTGCACACATTTAAAAAAAAAAA [CACACA_site2515] | 8.59 ± 0.45
31 | ATTACTAAAAAATATAAACACACATATATTTTACAT [CACACA_site8633] | 7.76 ± 0.52
32 | GGTCTTTTTTTCAAAAGTACATAAATAAAAAAGGTT [XGTACX_site2894] | 8.11 ± 0.62
33 | TTGTATGTAAAAAAGTGTACATGAGTGATTATATAA [XGTACX_site8166] | 8.26 ± 0.42
34 | AATAAAATAATAAAAGCACACAAGAATACACCCAAA [CACACA_site7919] | 8.78 ± 0.26
35 | TTTAACGAATAAAAATGTACAAATTTATACATTTAT [XGTACX_site2805] | 7.53 ± 0.52
36 | CTTTTTTTCTTTCCAAGTACTAAATTCATACAAATT [XGTACX_site2605] | 7.86 ± 0.34
37 | ATAGGTAAAAAGTATACACACGTTGACACATTCTTT [CACACA_site4794] | 7.71 ± 0.61
38 | ATTTTAAAAAGGATAGTGCAAATGTTAAAATAGGAC | 10.6 ± 0.3
39 | AAATAATACAAGGGCTGTACATAAAAAGGAGTATAT [XGTACX_site839] | 8.56 ± 0.77
40 | GTATATATCCCAAAATGTACATAATTTATTATTTAT [XGTACX_site2842] | 7.68 ± 0.57
41 | AGAAAAAAAAAAAGTACACACATATAACATATAGAT [CACACA_site7410] | 7.97 ± 0.15
42 | ATTTATTTTCTGTGTACACATATGTTGGGTATTTTA [CACACA_site5902] | 8.29 ± 0.63
43 | TACAAAAAAATAAATAATAAAAAAAAATATATATAA [XGTACX_negctrl_site344] | 7.46 ± 0.6
44 | CAGGTGCACTATATTACACACGCTTCTTTTTTTTTA [CACACA_site2069] | 11.7 ± 0.59
45 | TTGATATTATTGTATAAACATAATAGAGATAAAGAG [TGCATGCA_negctrl_site455] | 8.6 ± 0.3
46 | AACATGTTAACTAAATGTACACACCTATGTTGATGT [XGTACX_site3777] | 7.83 ± 0.38

Row | Sequence | gcPBM binding intensity (ln)
47 | TGAAGGATATATTCCGTGCACATATAAATATATACA | 11.035 ± 0.007
48 | GGAAAACACAAAAACTGTACATTTATTCAACATATA [XGTACX_site5831] | 7.71 ± 0.38
49 | TATATACATATATACACACACATATATATATATATA [CACACA_site2805] | 9.26 ± 0.77
50 | ATTTCTAAATGTTGGTGTACGTTTTTTTATAACCTT [XGTACX_site1752] | 8.16 ± 0.44
51 | AATAAATGGAATGTCACACATATATATATATATATA [CACACA_site4869] | 9.31 ± 0.33
52 | ATTATTTAAAAAAAATGTACATAATAAATATGAACG [XGTACX_site4010] | 7.64 ± 0.26
53 | AAAAAAAAGAAAGAAAGTACAAATTATAAAATGAAC [XGTACX_site860] | 7.78 ± 0.77
54 | TAAATTAAAAAACACACACACAAAAAAAAAAAAAAA [CACACA_site2263] | 8.16 ± 0.91
55 | AGTGTATGTATATAAACACACATACATATTTATAAC [CACACA_site6777] | 7.57 ± 0.62
56 | CTTAAATTGAAATGTTGTACAAAGTAAAAACAATGA [XGTACX_site2123] | 7.78 ± 0.52
57 | AAAGAATACAAAATTGCACACATATTGTGAAAATGT [CACACA_site9327] | 8.36 ± 0.38
58 | TATTAACACAATAGCGCACACTTTTAATATTTTATA [CACACA_site1617] | 10.1 ± 0.56
59 | ATATAATGTTGTAATAGTACTTTTTTCATATAAATA [XGTACX_site2666] | 7.91 ± 0.42
60 | ATCTCTTATATATTCACACACATATATATAATTATA [CACACA_site1502] | 8.27 ± 0.47
61 | AAATATAATAACGAACGTACTTATTATAATTTGTAA [XGTACX_site2342] | 7.5 ± 0.28
62 | TATTTATATATATGATGTACATAAGGTGTAATGTTA [XGTACX_site5591] | 8.12 ± 0.24
63 | ATATATATTTAATGTTGTACATAAAAAATATATAAA [XGTACX_site7774] | 7.72 ± 0.2
64 | TACATGAATATTTATACATGCACACTAAAATAAAGA [TGCATGCA_site611] | 8.52 ± 0.81
65 | TATTTACATACAAAATGTACAAAAATATATTTTTTT [XGTACX_site888] | 7.67 ± 0.43
66 | TATAAACCTTTTTGCACGCACACAAAAAAAAAATAA [CACACA_site168] | 9.99 ± 0.46
67 | AAACATATATACATATGTACATATATACATATATGT [XGTACX_site5779] | 8.04 ± 0.057
68 | GATTAACAACATATTAGTACATATATTATATATATA [XGTACX_site7646] | 8.61 ± 0.23
69 | GACTATAATGTTTTGGTGCGTCATGTTATGGTCATC | 9.05 ± 0.24

Row | Sequence | gcPBM binding intensity (ln)
70 | TTCGGAAAAATTAAAGCACACAAAAAAAAATAAAAA [CACACA_site8296] | 9.94 ± 0.69
71 | CACCCCCACAGACACACACACACACCGATATATATA [CACACA_site8010] | 9.06 ± 0.59
72 | TATAATTTAACGACATGTACATATAAAAAAATATTT [XGTACX_site2395] | 7.96 ± 0.3
73 | CATATTTTATTATATACATGCAATTTTAATATATAT [TGCATGCA_site544] | 7.75 ± 0.33
74 | TGTAGATTTTGTAACACACACATATAAATACCTATA [CACACA_site7183] | 7.79 ± 0.45
75 | TTATTTATATTTTTTTGTACACATATTGTATACATA [XGTACX_site1178] | 8.07 ± 0.47
76 | ATACACATTCTTCCGACATAATAAGAAAAAGAAAAA [CACACA_negctrl_site9] | 7.67 ± 0.47
77 | AAAATGTATTCTCTCATGCACACTTTCTTTAAGGGA [CACACA_site2196] | 8.3 ± 0.55
78 | TCAATCATCTTATATAGTACACATAAAAGTATTATA [XGTACX_site8513] | 7.7 ± 0.35
79 | GACAAAATGATAGGGACACACAATATCAATGTTTAA [CACACA_site765] | 7.63 ± 0.45
80 | AAAAAAAAAAATCCAGTGCATATATTTTTTACATAT | 9.87 ± 0.16
81 | CCACTAATAAATATTACACACATATAGATTTATATT [CACACA_site7465] | 7.83 ± 0.44
82 | CAAAAGGATATGCACACACACACACGGATATTTATA [CACACA_site7099] | 8.985 ± 0.064
83 | AGGCACACAAACATATGTACACATATATATATATAT [XGTACX_site4723] | 9.24 ± 0.14
84 | ATATTTATATGGTTTGCACACATAACAACTATGGTT [CACACA_site3631] | 8.64 ± 0.31
85 | ATATAACATATCAATTGTACGTATTGATAATATATA [XGTACX_site2504] | 7.72 ± 0.29
86 | TTTTGTTTTAATTTTATTTGATTTTATTTGATTTAT [CACACA_negctrl_site692] | 7.39 ± 0.69
87 | TTTATTGAACGTACACATATATATATGTATATATTT [TGCATGCA_negctrl_site141] | 7.99 ± 0.15
88 | TTATTTTTTTTATATATATGTATAAATATATATATA [XGTACX_negctrl_site441] | 8.69 ± 0.25
89 | ATATATATAAAATATACACACATACTGTTCATTTAA [CACACA_site6149] | 8.03 ± 0.64
90 | TTTTATTATTAATTTCTTTTTTCTCATCACTTTCAA [XGTACX_negctrl_site117] | 7.63 ± 0.98

Source: the supplement of paper PMC11417369
